Experimental data published in patent US12708676B2, “Phosphate compounds for detecting neurological disorders” (Amydis, Inc., priority 2018, dated 2026).

What was measured:
aggregated Aβ = aggregated Aβ (Homo sapiens, UniProt P05067); assay: Fluorescent detection of Aβ in vitro; type: binding
[1] = biological target: amyloid deposits associated with CAA (Homo sapiens, UniProt P05067); assay: Example 8: ex vivo staining of human CAA brain tissue; type: binding; conditions: median frontal cortex sections
Source text: Post-mortem brain tissue from patients diagnosed with CAA were examined to de-risk the translation from the limited robust preclinical animal models to humans. This study was designed to understand the fundamental basis of fluorescently detecting amyloids using human tissue. […] Human CAA brain tissue and healthy control brain tissue was acquired (University of California, San Diego, CA). […] All CAA patients were female and ranged in age from 70-93 years. Control brains were obtained from cognitively normal patients that ranged in age from 82-94 years from both male and female donors.

Aβ plaques = Aβ plaques (Homo sapiens, UniProt P05067); assay: Example 7: ex vivo staining of human Alzheimer's disease tissue, co-localization with 6E10; conditions: post-mortem hippocampal sections, familial Alzheimer's disease patient
Procedure: Ex Vivo Analysis with Human Alzheimer's Disease Tissue: Post-mortem retinal tissue and brains of humans with confirmed or probable Alzheimer's disease were obtained (University of Miami, FL). This study was conducted to determine 1) if there is a correlation between amyloidosis in the brain and retinas of Alzheimer's disease patients, and 2) if compounds as disclosed herein could identify patients with amyloid accumulation in the brain through fluorescence inspection of retinas as a method for diagnosing patients with Alzheimer's disease.
A co-localization experiment was conducted on brain tissue from a patient diagnosed with familial Alzheimer's disease. Free floating sections from the post-mortem hippocampal region of this patient were stained with an Aβ sequence specific antibody (6E10) along with Compound 7. […] One limitation of 6E10, is that it recognizes a specific sequence of amino acids rather than the aggregation of Aβ which explains the fluorescence of both dense core plaques and other diffuse objects observed in FIGS. 6B and C.

In the case of `N#C/C(=C\c1ccc2cc(N3CCCCC3)ccc2c1)C(=O)NCCOCCOCCO` [Compound 7, (E)-2-cyano-N-(2-(2-(2-hydroxyethoxy)ethoxy)ethyl)-3-(6-(piperidin-1-yl)naphthalen-2-yl)acrylamide], the “Fluorescent detection of Aβ40 in vitro” value (aggregated Aβ) is reported as “fluorescently detect Aβ40 in vitro”, the “Co-localization with 6E10” value [1] is reported as “co-localized with the immunoreactivity of 6E10 in CAA-laden plaques within the vessels” and the “Binding to dense core plaques of Aβ” value (Aβ plaques) is reported as “binds to objects consistent in size and morphology to dense core plaques of Aβ”. For the same molecule, the “Co-localization with 6E10” value (Aβ plaques) was “co-localized with the immunoreactivity of 6E10 dense core amyloid plaques”.
